From PubChem BioAssay AID624417 (National Center for Advancing Translational Sciences (NCATS), 2012)
Out of some 410,000 compounds screened, about 6,400 (1.6%) were called active. Inconclusive results, whose numbers are uncertain, are shown with a selection of clear calls. The call rests on the fitted dose curve; in most records, active means well fitted inhibition curve with a large enough effect; inconclusive means small, poorly fitted or top-dose-only effect; inactive means no such curve, though single readings can be large or run the other way. No potency is given beside an inconclusive call; the fits are too rough.

The compounds below were run against Glucagon-like peptide 1 receptor (Homo sapiens) (UniProt P43220) (assay: qHTS of GLP-1 Receptor Inverse Agonists (Inhibition Mode)). Conditions: HEK293 GLP-1R CRE-luciferase, luminescence, 24 h, GLP-1R form is constitutively active; series mostly up to 38.3 µM.
Method in brief: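 Inverse agonists were sought by their lowering of basal cAMP reporter luciferase output in HEK293 cells stably carrying constitutively active human GLP-1R, after 24 h compound treatment.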
Further: nearly all actives have a fitted effect of over 55% in size.
Potency means the concentration at half of the fitted maximal effect; tags describe the fitted curve by direction and shape.

Sequence of UniProt P43220 (P43220 whole entry, looked up): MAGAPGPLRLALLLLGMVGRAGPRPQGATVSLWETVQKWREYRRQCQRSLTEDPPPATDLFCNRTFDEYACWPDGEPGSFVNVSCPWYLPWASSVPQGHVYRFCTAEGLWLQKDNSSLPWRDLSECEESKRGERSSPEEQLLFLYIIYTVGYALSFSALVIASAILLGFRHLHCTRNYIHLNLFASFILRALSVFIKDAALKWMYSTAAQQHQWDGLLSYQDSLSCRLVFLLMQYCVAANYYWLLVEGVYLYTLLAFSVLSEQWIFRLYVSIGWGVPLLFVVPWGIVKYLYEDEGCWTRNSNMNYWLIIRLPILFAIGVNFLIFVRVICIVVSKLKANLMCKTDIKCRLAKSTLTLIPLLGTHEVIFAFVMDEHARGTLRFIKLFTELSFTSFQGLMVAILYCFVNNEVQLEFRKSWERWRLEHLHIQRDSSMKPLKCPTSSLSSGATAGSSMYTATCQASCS

Q: With `Cn1ccs/c1=N\C(=O)Nc1cccc(C(F)(F)F)c1` as the compound, how does the Potency read?
A: inconclusive [inhibitor, single point]

Q: Which Potency does the source give for `Cc1ccc(NC(=O)C(C)OC(=O)c2n[nH]c3ccccc23)cc1` (stereo unspecified) here?
A: inconclusive [inhibitor, single point]

Q: `Cc1ccccc1CSCCNC(=O)Nc1ccccc1` was tested. Which Potency did it give?
A: inconclusive [inhibitor, single point]

Q: Which Potency does the source give for `N/C(COc1cccc(C(F)(F)F)c1)=N\NC(=O)c1cccnc1Oc1ccccc1` here?
A: inconclusive [inhibitor, partial curve, poor fit]

Q: With `COc1ccc(NC(=O)c2ccc(-c3cccc(Cl)c3C)o2)cc1` as the compound, how does the Potency read?
A: inconclusive [inhibitor, single point]

Q: How did the Potency turn out when `CCC(=O)NC(c1ccc(Cl)cc1Cl)c1ccc2cccnc2c1O` (stereo unspecified) was run?
A: inconclusive [inhibitor, partial curve, poor fit]

Q: With `COc1ccc(-c2[nH]c(-c3ccccc3)nc2SCC(=O)Nc2ccc3c(c2)OCO3)cc1` as the compound, how does the Potency read?
A: inconclusive [inhibitor, single point]

Q: With `Cc1ccc(NS(=O)(=O)c2cccc(C(=O)NCCc3c[nH]c4ccccc34)c2)c(C)c1` as the compound, how does the Potency read?
A: inconclusive [inhibitor, partial curve, poor fit]

Q: Which Potency does the source give for `Cc1ccc(-n2nc3c(=O)n(CC(=O)NCc4cccs4)nc(C)c3c2C)cc1` here?
A: inconclusive [inhibitor, partial curve, poor fit]

Q: `CC(C)c1ccc(S(=O)(=O)N2CCC(C(=O)N3CCN(c4cccc(Cl)c4)CC3)CC2)cc1` was tested. Which Potency did it give?
A: inconclusive [inhibitor, partial curve, poor fit]

Q: `CC(C)(C)NC(=O)CN(C(=O)CCC(=O)Nc1nccs1)c1ccc(F)c(Cl)c1` was tested. Which Potency did it give?
A: inconclusive [inhibitor, single point]

Q: Which Potency does the source give for `O=C(Nc1cccc(S(=O)(=O)N2CCCCC2)c1)c1cncc(Br)c1` here?
A: inconclusive [inhibitor, single point]

Q: With `O=C1c2ccccc2C(Nc2ccc(Cl)cn2)N1c1cccnc1` (stereo unspecified) as the compound, how does the Potency read?
A: inconclusive [inhibitor, single point]

Q: With `O=C(NCCc1ccc(Cl)cc1)c1ccc2c(c1)N(Cc1ccc(F)cc1Cl)C(=O)CS2` as the compound, how does the Potency read?
A: inconclusive [inhibitor, single point]

Q: Which Potency does the source give for `O=C(/C=C/c1ccccc1)c1ccc2c3c(cccc13)CC2` here?
A: inconclusive [inhibitor, partial curve, poor fit]

Q: How did the Potency turn out when `CCOC(=O)C(=O)N(Nc1ccccc1C)c1ccccc1C` was run?
A: inconclusive [inhibitor, single point]

Q: How did the Potency turn out when `N#Cc1ccccc1Sc1ccccc1C(=O)Nc1ccccc1` was run?
A: inconclusive [inhibitor, single point]

Q: With `O=S1(=O)C=C(SCc2ccccc2)Nc2ccccc21` as the compound, how does the Potency read?
A: inconclusive [inhibitor, partial curve, poor fit]

Q: With `COc1ccc(-c2cc(C(=O)N(C)Cc3ccccc3F)c3ccccc3n2)cc1OC` as the compound, how does the Potency read?
A: inconclusive [inhibitor, single point]

Q: `CCCc1ccc(-c2cc(C(=O)NN3CCOCC3)c3ccccc3n2)cc1` was tested. Which Potency did it give?
A: inactive

Q: Which Potency does the source give for `O=C(Nc1sc2c(c1-c1nc3ccccc3[nH]1)CCCC2)C1CCCC1` here?
A: inconclusive [inhibitor, partial curve, poor fit]

Q: How did the Potency turn out when `Cc1[nH]c(C)c(S(=O)(=O)N2CCN(c3cccc(C(F)(F)F)c3)CC2)c1C(=O)N1CCCCC1` was run?
A: inconclusive [inhibitor, partial curve, poor fit]

Q: Which Potency does the source give for `COc1cc(OC)c(C2C=C(c3ccc(C)cc3)Nc3c(C(=O)Nc4ccccc4)cnn32)cc1OC` (stereo unspecified) here?
A: inactive

Q: For `O=C(NC1=NCCS1)c1ccccc1OCc1ccccc1Cl`, which Potency is on record?
A: inconclusive [inhibitor, single point]

Q: How did the Potency turn out when `Cc1ccc(CN(Cc2ccco2)C(=O)c2ccco2)cc1` was run?
A: inconclusive [inhibitor, single point]

Q: How did the Potency turn out when `COc1cccc(/C=N/NC(=O)c2cccc(N3CCCC3=O)c2)c1` was run?
A: inactive

Q: Which Potency does the source give for `CCOc1ccccc1NC(=O)C1CCN(S(=O)(=O)Cc2ccccc2)CC1` here?
A: inactive

Q: With `Cc1cc(=O)n(C(C)C(=O)NCc2ccccc2Cl)c2c1c(C)nn2-c1ccccc1` (stereo unspecified) as the compound, how does the Potency read?
A: inactive

Q: Which Potency does the source give for `COc1cccc2c(Cl)c(CC=C(Cl)Cl)c(C)nc12` here?
A: inactive

Q: For `CCCc1cc(C(=O)N/N=C/c2cccn2C)cs1`, which Potency is on record?
A: inconclusive [inhibitor, single point]

Q: Which Potency does the source give for `Cc1c(C(=O)NCc2cccc(C(F)(F)F)c2)sc(=O)n1Cc1ccc(C(=O)N(C)C)cc1` here?
A: inactive

Q: `Cc1cccc(NC(=O)/C=C/c2ccc([N+](=O)[O-])s2)c1` was tested. Which Potency did it give?
A: inconclusive [inhibitor, full curve, poor fit]

Q: How did the Potency turn out when `COc1ccc(CN(C)C(C)C(=O)NC2CCCc3ccccc32)cc1` (stereo unspecified) was run?
A: inconclusive [inhibitor, single point]

Q: How did the Potency turn out when `Cc1ccc(NC(=O)c2ccc(OC(F)(F)F)cc2)cc1S(=O)(=O)N(C)C` was run?
A: inconclusive [inhibitor, single point]

Q: How did the Potency turn out when `O=C(Nc1ccc(F)cc1)c1cccc(N2CCCS2(=O)=O)c1` was run?
A: inactive

Q: With `N=C1SCC(=O)N1c1ncc(Cc2ccc(F)cc2)s1` as the compound, how does the Potency read?
A: inconclusive [inhibitor, partial curve, poor fit]

Q: How did the Potency turn out when `CC(Oc1ccc(Cl)cc1Cl)C(=O)Nc1ccc(S(=O)(=O)Nc2cnc3ccccc3n2)cc1` (stereo unspecified) was run?
A: inactive

Q: How did the Potency turn out when `Cc1c(C(=O)N2CCCCC2)oc2ccc(Br)cc12` was run?
A: inconclusive [inhibitor, single point]

Q: How did the Potency turn out when `O=C(OCCCCOC(=O)c1ccccc1)c1ccccc1` was run?
A: inconclusive [inhibitor, single point]

Q: `COc1cc(/C(C)=N/NC(=S)NC(C)C)cc(OC)c1OC` was tested. Which Potency did it give?
A: inconclusive [inhibitor, partial curve, poor fit]

Q: For `Cc1ccc(S(=O)(=O)N2CCCc3cc(NC(=O)c4ccc(C(F)(F)F)cc4)ccc32)cc1`, which Potency is on record?
A: inconclusive [inhibitor, full curve]
